In the supplement of paper PMC4723716:
Whole data set: some 3,600 compounds, median “viability index relative to DMSO control” near 0.81, cut for the lowest 2% near 0.13. Some of the results follow.

Test system: Plasmodium falciparum NF54 stage V gametocytes
Test: viability index relative to DMSO control (fraction); higher = less gametocyte killing
Settings: 1.25 µM, incubation time: 72 h
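Also: 384-well serum-free SaLSSA: MitoTracker Red CMXRos staining with saponin lysis, high-content imaging, treated-well particle count divided by plate-mean count of DMSO wells.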

CCCCCOC(=O)C1=C(C)Nc2ncnn2C1c1cccc([N+](=O)[O-])c1 (stereo unspecified) was tested. Which viability index did it give?
Its viability index is 0.783.

COc1ccccc1N(CC(=O)N1CCCCC1)S(=O)(=O)c1ccccc1 was tested. Which viability index did it give?
Its viability index is 1.08.

With CCOc1ccc(CCN2C(=S)N(c3cccc(C(F)(F)F)c3)C(=O)C2CC(=O)Nc2ccc(C(=O)OC)cc2)cc1OCC (stereo unspecified) as the compound, how does the viability index read?
Its viability index is 0.582.

Fc1ccccc1Nc1nc(NCc2ccccc2)c2ccccc2n1 was tested. Which viability index did it give?
Its viability index is 1.04.

O=C1NN(c2ccccc2)C(=O)C1=C1C(=O)N(Cc2cccc3ccccc23)c2ccccc21 was tested. Which viability index did it give?
The viability index was 0.811.

COC(=O)C1=C(C(=O)OC)SC(=C2C(=S)C(C)(C)Nc3cc(C)ccc32)S1 was tested. Which viability index did it give?
Its viability index is 1.15.

COC(=O)c1c(-c2c(Cl)cccc2Cl)noc1C=CNc1ccccc1 was tested. Which viability index did it give?
The viability index was 0.834.

Cc1cc(C)cc(NC2=C(c3ccccc3)C(=O)c3ccccc32)c1 was tested. Which viability index did it give?
Its viability index is 0.807.

COc1cc(C2C(C(=O)OCCc3ccccc3)=C(C)NC3=C2C(=O)CC(c2ccc(Cl)cc2)C3)ccc1OCc1ccccc1 (stereo unspecified) was tested. Which viability index did it give?
The viability index was 0.849.

COc1ccc(NC(=O)C2c3ccccc3C(=O)N(C3CCCC3)C2c2cccs2)cc1Cl (stereo unspecified) was tested. Which viability index did it give?
The viability index was 0.313.

Which viability index does the source give for Cc1c(C(=O)N2CCN(c3cccc(Cl)c3)CC2)sc2ncnc(N(C)c3ccccc3)c12 here?
Its viability index is 0.734.

Which viability index does the source give for COc1cccc(-c2cc(C(=O)Nc3cc(Cl)ccc3O)on2)c1 here?
The viability index was 0.936.

How did the viability index turn out when CCOc1ccc(-c2nc(NC(=O)Cc3cccc(OC)c3)sc2C)cc1 was run?
The viability index was 0.896.

With Cc1oc2c(c1C(=O)NCc1cccnc1)C(=O)c1ccccc1C2=O as the compound, how does the viability index read?
The viability index was 0.231.

With O=C(Nc1ccc(Oc2cccnc2)cc1)C1CCN(Cc2cc3ccccc3o2)CC1 as the compound, how does the viability index read?
The viability index was 0.894.

Which viability index does the source give for COc1ccc(OC)c(-c2ccc(O)c(CN(C)CC(O)c3ccccc3)c2)c1 (stereo unspecified) here?
The viability index was 0.538.

Which viability index does the source give for O=C(NN=Cc1c(O)ccc2ccccc12)c1cccnc1 here?
The viability index was 0.866.

How did the viability index turn out when COc1ccc(C(C)=O)cc1N1C(=O)C2C(C1=O)C1(c3ccccc3)C(=O)C2(c2ccccc2)C(c2ccc(C)cc2)=C1c1ccc(C)cc1 (stereo unspecified) was run?
The viability index was 1.07.

COc1ccc(CN(Cc2cc3cccc(C)c3nc2N2CCCC(O)C2)C(=O)c2ccc(OC)c(OC)c2)cc1 (stereo unspecified) was tested. Which viability index did it give?
Its viability index is 1.12.

With S=C(NN=CC=NNC(=S)Nc1ccccc1)Nc1ccccc1 as the compound, how does the viability index read?
The viability index was 0.104.

For CSc1cccc([C@@H]2C[C@H]3CN(c4ccccc4)C(=O)[C@]34CCCN24)c1, which viability index is on record?
The viability index was 0.75.

COCCOC(=O)C1=C(C)NC2=C(C(=O)CC(c3ccc(OC)c(OC)c3)C2)C1c1ccc(Cl)cc1Cl (stereo unspecified) was tested. Which viability index did it give?
Its viability index is 0.672.

Cc1ccc(OCC(=O)Nc2cccc(C(=O)O)c2)c(Br)c1 was tested. Which viability index did it give?
Its viability index is 1.18.

How did the viability index turn out when Cc1ccc(-c2nnc(SCCCC(=O)NC(Cc3ccccc3)c3ccccc3)n2-c2cccc(Cl)c2)cc1 (stereo unspecified) was run?
Its viability index is 0.488.

How did the viability index turn out when CN1CCC(N2CCC(Oc3cccc(C(=O)NCCC4=CCCCC4)c3)CC2)CC1 was run?
The viability index was 1.02.

With Brc1ccc(Nc2nc(NCC3CCCO3)c3ccccc3n2)cc1 (stereo unspecified) as the compound, how does the viability index read?
The viability index was 0.706.

Which viability index does the source give for COc1ccc2nc(C)cc(Nc3ccc(Oc4ccc5ccccc5c4)c(Cl)c3)c2c1 here?
Its viability index is 0.576.

Which viability index does the source give for O=C(Nc1ccc(Cl)cc1)N1CCN(c2ccc3nncn3n2)CC1 here?
The viability index was 0.669.

Which viability index does the source give for CCCCCCCc1ccc(-c2nnc(-c3ccc([N+](=O)[O-])cc3)o2)cc1 here?
The viability index was 1.09.

CC(C)=CCCC1=CCC(CNCCCN(C)C)C(C)C1 (stereo unspecified) was tested. Which viability index did it give?
The viability index was 0.498.

Which viability index does the source give for CCOC(=O)c1c(C)[nH]c(C)c1S(=O)(=O)N1CCCC(C(=O)N2CCN(c3cc(C)ccc3C)CC2)C1 (stereo unspecified) here?
The viability index was 0.9.

With O=C(NC(=CC=Cc1ccccc1)C(=O)N1CCCCC1)c1ccc([N+](=O)[O-])cc1 as the compound, how does the viability index read?
Its viability index is 0.866.

How did the viability index turn out when CCN(CC)c1ccc(C=Cc2cc[n+](Cc3ccc(F)cc3)cc2)cc1 was run?
Its viability index is 0.677.

Which viability index does the source give for CCCOC(=O)C1=C(C)NC2=C(C(=O)CC(c3ccc(OC)c(OC)c3)C2)C1c1cccc([N+](=O)[O-])c1 (stereo unspecified) here?
The viability index was 1.2.

COc1cccc(NC(=O)c2ccc(NCCCN3CCC(C)CC3)c([N+](=O)[O-])c2)c1 was tested. Which viability index did it give?
The viability index was 1.07.

Which viability index does the source give for CCN(CC)c1ccc(C=NNC(=O)c2ccc(Nc3nc(-c4ccccc4)cs3)cc2)c(O)c1 here?
The viability index was 0.675.

Cc1ccc(C)c(Nc2nc3c(s2)CCCC3)c1 was tested. Which viability index did it give?
The viability index was 0.682.

With Cn1cc(C(c2cccs2)c2cn(C)c3ccccc23)c2ccccc21 as the compound, how does the viability index read?
The viability index was 1.05.

For COc1ccc(-c2cc(C3CCN(c4nc(N)c5cc(OC)c(OC)cc5n4)CC3)n[nH]2)cc1OC, which viability index is on record?
The viability index was 1.17.

How did the viability index turn out when CCOC(=O)C1=C(C)NC2=C(C(=O)CC(c3ccc(OC)c(OC)c3)C2)C1c1cccc(Br)c1 (stereo unspecified) was run?
Its viability index is 0.927.

With O=C(COc1cccc(Cl)c1)Nc1nccs1 as the compound, how does the viability index read?
The viability index was 0.95.

Which viability index does the source give for Cc1ccc(NC(=O)C2CSC(c3cccc(F)c3)N2C(=O)c2ccc(C(C)(C)C)cc2)cc1 (stereo unspecified) here?
Its viability index is 0.673.

For CCN1C(=Cc2cccc[n+]2C)Sc2ccc(C)cc21, which viability index is on record?
Its viability index is 1.16.

CC(=O)c1cc(CN2CCC(C(=O)Nc3ccc(-n4nc(C)cc4C)cc3)CC2)cs1 was tested. Which viability index did it give?
The viability index was 0.76.

Which viability index does the source give for N#Cc1c(NC(=O)COc2ccc(F)cc2F)sc2c1CCC2 here?
Its viability index is 1.23.

CCOC(=O)C1=C(C)NC2=C(C(=O)C(C(=O)OCC)C(c3cccc(OC)c3)C2)C1c1ccc(Br)cc1 (stereo unspecified) was tested. Which viability index did it give?
Its viability index is 1.12.

How did the viability index turn out when Cc1ccc(C=C2SC(=Nc3ccccc3)NC2=O)c(C)c1 was run?
The viability index was 0.532.

Which viability index does the source give for Cc1c(C#N)c2ccccc2n1CC(=O)NCCc1ccccc1 here?
Its viability index is 0.798.

For COc1nccnc1NS(=O)(=O)c1ccc(NC(=O)c2cc3ccccc3oc2=O)cc1, which viability index is on record?
Its viability index is 0.855.

With COc1ccc2nc(C)cc(NN=Cc3cccc(OC)c3O)c2c1 as the compound, how does the viability index read?
The viability index was 0.57.

With COc1ccc2nc(C)cc(Nc3ccc(Oc4ccc(Br)c5ccccc45)c(Cl)c3)c2c1 as the compound, how does the viability index read?
Its viability index is 0.422.

How did the viability index turn out when COc1cc2cc(C(=O)Nc3ccccc3)c(N)nc2cc1OC was run?
Its viability index is 0.895.

With Cc1ccc(Cn2c(SCc3ccc(C(=O)NCCc4ccccc4)cc3)nc3ccncc32)cc1 as the compound, how does the viability index read?
Its viability index is 0.905.

How did the viability index turn out when CN(C)Cc1c(O)ccc2oc(Cc3ccccc3)cc12 was run?
Its viability index is 0.404.

For COc1cc(C2C(C(=O)OCC(C)C)=C(C)NC3=C2C(=O)CC(c2ccccc2)C3)cc(Br)c1O (stereo unspecified), which viability index is on record?
The viability index was 0.819.

How did the viability index turn out when O=[N+]([O-])c1ccc(S(=O)(=O)N2CCN(C(=S)NCCc3ccccc3)CC2)cc1 was run?
The viability index was 0.298.

With CC(C)C(=O)NC(Nc1cccc([N+](=O)[O-])c1)C(Cl)(Cl)Cl (stereo unspecified) as the compound, how does the viability index read?
Its viability index is 0.91.

O=C(NC(=S)Nc1ccc(NC(=O)c2cccs2)cc1)c1ccco1 was tested. Which viability index did it give?
Its viability index is 0.677.

How did the viability index turn out when C=CCOc1cccc(C(Nc2cccc(C)n2)c2ccc3cccnc3c2O)c1 (stereo unspecified) was run?
The viability index was 0.981.

For C[N+]1(CC(=O)NNc2c3ccccc3nc3ccccc23)CCOCC1, which viability index is on record?
Its viability index is 0.857.

How did the viability index turn out when Cc1cccc(NC(c2ccccc2F)c2ccc3cccnc3c2O)n1 (stereo unspecified) was run?
Its viability index is 1.05.

How did the viability index turn out when OCCNc1nc(Nc2cccc(O)c2)nc2ccccc12 was run?
The viability index was 0.605.

With Fc1ccc(CSc2ccc3nnc(-c4cccnc4)n3n2)cc1 as the compound, how does the viability index read?
The viability index was 1.07.

Which viability index does the source give for CC1=C(C(=O)OC(C)C)C(c2ccc([N+](=O)[O-])cc2)C2=C(CCCC2=O)N1 (stereo unspecified) here?
The viability index was 0.585.

How did the viability index turn out when CC(NCCCN(C)C)c1cc(C(C)(C)C)cc2c1CCC2(C)C (stereo unspecified) was run?
The viability index was 0.283.

For CCN1CCCC1CNc1ncnc2c1[nH]c1ccc(C)cc12 (stereo unspecified), which viability index is on record?
Its viability index is 0.713.

How did the viability index turn out when c1ccc(Cn2c(N=NNc3nc4ccccc4n3Cc3ccccc3)nc3ccccc32)cc1 was run?
The viability index was 0.545.

Which viability index does the source give for COc1ccc(C2CC(=O)C3=C(C2)NC(C)=C(C(=O)OC2CCCC2)C3c2ccccc2OC)cc1OC (stereo unspecified) here?
Its viability index is 0.753.

Which viability index does the source give for COc1ccccc1C(=O)N1CCN(Cc2ccc3ccccc3c2)CC1 here?
Its viability index is 0.913.

COc1ccccc1Nc1nc(NCc2ccccc2)c2ccccc2n1 was tested. Which viability index did it give?
Its viability index is 0.544.

Which viability index does the source give for O=C(Nc1c(C(=O)Nc2cccc(Cl)c2)oc2ccccc12)c1cc(-c2ccccc2O)n[nH]1 here?
Its viability index is 0.368.

With COc1ccc2nc(C)cc(Nc3ccc(Cl)c(Cl)c3)c2c1 as the compound, how does the viability index read?
Its viability index is 0.634.

For COc1ccc(CNC(=O)CCc2cn(Cc3cc(C)ccc3C)c3ccccc23)cc1OC, which viability index is on record?
Its viability index is 0.835.

For CCOc1ccc2nc3cc(NCc4ccco4)ccc3c(N)c2c1, which viability index is on record?
Its viability index is 0.775.

How did the viability index turn out when Cc1ccc2ncnc(Nc3cccc(C(F)(F)F)c3)c2c1 was run?
The viability index was 0.751.

How did the viability index turn out when CCOc1ccc(Nc2nc(N3CCCCC3)nc(N3CCCCC3)n2)cc1 was run?
Its viability index is 0.695.

With CCCC(=O)O[C@]1(C(=O)CCl)[C@@H](C)C[C@H]2[C@@H]3CCC4=CC(=O)C=C[C@]4(C)[C@@]3(F)C(=O)C[C@@]21C as the compound, how does the viability index read?
Its viability index is 0.246.

Which viability index does the source give for Cc1ccc(NC(=O)CCCCC(=O)Nc2ccc(C)c(Br)c2)cc1Br here?
The viability index was 0.996.

How did the viability index turn out when CCOc1ccc2[nH]c(=O)c(CN(CCCN3CCOCC3)C(=S)NCCCN(CC)CC)cc2c1 was run?
Its viability index is 0.814.

Which viability index does the source give for O=C(/C=C/c1ccccn1)NCC1Cc2cc(-c3cnccn3)ccc2O1 (stereo unspecified) here?
Its viability index is 0.788.

Which viability index does the source give for O=C(c1ccc(Cl)cc1Cl)N1CCCC(C(F)(F)F)C1 (stereo unspecified) here?
The viability index was 0.872.

CCCCCc1c(C)c(C#N)c2nc3ccccc3n2c1NCCN(CC)CC was tested. Which viability index did it give?
Its viability index is 0.961.

How did the viability index turn out when Cc1cc(Nc2ccc(I)cc2)n2ncnc2n1 was run?
The viability index was 0.888.

How did the viability index turn out when CCC1=NN2C(=N)/C(=C/c3ccc(OCCOc4ccc(Br)cc4)c(OC)c3)C(=O)N=C2S1 was run?
Its viability index is 0.751.

How did the viability index turn out when COc1ccccc1N1CCN(C2CCN(C3CCC(c4ccccc4)CC3)CC2)CC1 (stereo unspecified) was run?
Its viability index is 0.892.

CC(=O)N(C=C1Sc2ccccc2C1=O)c1ccc(C)cc1 was tested. Which viability index did it give?
The viability index was 0.785.
